The campaign covered roughly 110,000 compounds. About 230 (0.21%) showed an effect of 50% or more. The list shows a part of the results.
target: DPAP1 (Plasmodium falciparum, UniProt Q8IIJ9); test: primary screen, percent inhibition; read by cleavage of a fluorogenic dipeptide substrate; higher = more effect of the substance; set-up: species or system P. falciparum D10 trophozoite lysates; single well
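Note: 30 min substrate incubation versus DMSO and 10 µM JCP410 controls.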

Chain of DPAP1 (Q8IIJ9 whole entry, looked up): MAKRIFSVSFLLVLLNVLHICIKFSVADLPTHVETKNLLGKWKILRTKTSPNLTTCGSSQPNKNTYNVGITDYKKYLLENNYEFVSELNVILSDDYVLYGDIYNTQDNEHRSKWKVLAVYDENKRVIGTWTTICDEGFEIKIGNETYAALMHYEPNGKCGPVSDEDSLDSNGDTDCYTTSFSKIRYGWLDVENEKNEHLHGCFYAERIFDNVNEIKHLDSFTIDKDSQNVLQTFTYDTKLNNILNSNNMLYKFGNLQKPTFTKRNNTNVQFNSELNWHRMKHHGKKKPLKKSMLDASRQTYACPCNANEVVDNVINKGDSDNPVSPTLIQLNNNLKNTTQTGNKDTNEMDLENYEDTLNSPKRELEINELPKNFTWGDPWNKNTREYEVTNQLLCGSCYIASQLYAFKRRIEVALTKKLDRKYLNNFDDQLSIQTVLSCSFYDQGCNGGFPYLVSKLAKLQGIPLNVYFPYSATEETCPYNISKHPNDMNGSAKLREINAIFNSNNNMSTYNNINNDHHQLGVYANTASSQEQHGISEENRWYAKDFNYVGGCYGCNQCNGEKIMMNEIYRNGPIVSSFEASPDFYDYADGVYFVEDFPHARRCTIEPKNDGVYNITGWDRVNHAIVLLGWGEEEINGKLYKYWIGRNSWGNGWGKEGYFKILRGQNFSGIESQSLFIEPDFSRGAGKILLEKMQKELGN

Cc1cc(N)ccc1NC(=O)c1ccccc1Cl was tested. Which “% Inhibition @ 10 uM” value did it give?
The value was 4.31%.

Which “% Inhibition @ 10 uM” value does the source give for COc1ccc(/C=C2\SC(c3ccccc3)=NC2=O)cc1C here?
The value was 8.74%.

How did the “% Inhibition @ 10 uM” value turn out when N#C/C(=C\c1ccncc1)c1nc2ccccc2[nH]1 was run?
Its value is 2.8%.

With O=C(c1ccc(COc2ccc(Cl)cc2)o1)N1N=C(C(F)F)CC1(O)C(F)F (centres unmarked) as the molecule, how does the “% Inhibition @ 10 uM” value read?
Its value is -4.15%.

With Cn1ncc([N+](=O)[O-])c1C(=O)Nc1ccc(C2CCCCC2)cc1 as the molecule, how does the “% Inhibition @ 10 uM” value read?
Its value is 2.38%.

For CC(Sc1nc2sc3c(c2c(=O)n1-c1ccccc1)CC(C)(C)OC3)C(=O)O (centres unmarked), which “% Inhibition @ 10 uM” value is on record?
Its value is -3.26%.

How did the “% Inhibition @ 10 uM” value turn out when CCC(C)N(CCNC(=O)c1ccc2nc(N3CCOCC3)sc2c1)C1CCCCC1 (centres unmarked) was run?
Its value is 5.73%.

How did the “% Inhibition @ 10 uM” value turn out when NS(=O)(=O)c1ccc(CCNC(=O)Cn2c(=O)c3cccn3c3cccnc32)cc1 was run?
Its value is -4.46%.

With Cc1nc2ccccn2c(=O)c1C(=O)O as the molecule, how does the “% Inhibition @ 10 uM” value read?
The value was 3.24%.

With CCN(CC)c1ccc(/C=c2\sc3nc4ccccc4n3c2=O)c(O)c1 as the molecule, how does the “% Inhibition @ 10 uM” value read?
Its value is 3.15%.

Which “% Inhibition @ 10 uM” value does the source give for O=C(O)c1ccc(CNS(=O)(=O)c2ccc(C(=O)O)cc2)cc1 here?
The value was -6.82%.

With O=C(CSc1nc[nH]n1)c1ccc(Br)cc1 as the molecule, how does the “% Inhibition @ 10 uM” value read?
The value was 2.3%.

COc1ccc(CNCc2ccccc2OC)cc1 was tested. Which “% Inhibition @ 10 uM” value did it give?
Its value is -7.94%.

For O=C(NC1(C(F)(F)F)NC(=O)N(Cc2ccccc2)C1=O)c1ccccc1Cl (centres unmarked), which “% Inhibition @ 10 uM” value is on record?
Its value is -1.52%.

Which “% Inhibition @ 10 uM” value does the source give for Cc1ccc(CSc2nc3ccc(C(=O)NCCCN4CCCC4=O)cc3n2C)cc1 here?
The value was 5.82%.

Which “% Inhibition @ 10 uM” value does the source give for CC(NC(=O)COc1ccc(-c2nn(C)c(=O)c3ccccc23)cc1)c1ccccc1 (centres unmarked) here?
Its value is -3.23%.

Cc1cccn2c(=O)c3cc(C(=O)NCC4CCCO4)c(=N)n(Cc4cccnc4)c3nc12 (centres unmarked) was tested. Which “% Inhibition @ 10 uM” value did it give?
The value was -1.69%.

How did the “% Inhibition @ 10 uM” value turn out when CC(C)COc1ccc2c(c1)c1c(n2C)C(=O)CCC1 was run?
Its value is 6.06%.

How did the “% Inhibition @ 10 uM” value turn out when COCCN1C=C(C(=O)OC)C(c2ccc(OC)c(O)c2)C(C(=O)OC)=C1 was run?
The value was -1.33%.

CC(C)c1ccc(NC(=O)NC2CCCCC2)cc1 was tested. Which “% Inhibition @ 10 uM” value did it give?
The value was -0.351%.

How did the “% Inhibition @ 10 uM” value turn out when O=C1CC(Cc2ccc(Cl)cc2)C(=O)N1c1ccc(Cl)cc1 (centres unmarked) was run?
The value was -1.42%.

How did the “% Inhibition @ 10 uM” value turn out when COCCCNC(=O)Cn1c(C)c(C(=O)C(F)(F)F)c2ccccc21 was run?
Its value is -5.1%.

CCCCOc1ccc2ccccc2c1/C=C1\SC(=O)NC1=O was tested. Which “% Inhibition @ 10 uM” value did it give?
Its value is -0.736%.

— paper PMC6919601, “Identification of Plasmodium dipeptidyl aminopeptidase allosteric inhibitors by high throughput screening” (PLoS ONE, 2019)
